A lower IC50 marks a more sensitive line; a fit beyond the top or the lowest dose is shown as a bound at that dose. The AUC spans the tested range (256-fold, ending at the top dose) of the same fit: 1 means no effect, lower means more sensitive. For some assays here: An inferred top dose was derived from the fitted curves, not read from the paper. For some assays here: An entry number marks a drug with two screens in the source, which often give different values.
Experiments:
Assay in all cases: Viability of human cancer cell lines after 72 h of drug (GDSC screen)
SB 216763 = compound: Cn1cc(C2=C(c3ccc(Cl)cc3Cl)C(=O)NC2=O)c2ccccc21 [SB 216763]; details: top dose 10 µM; top dose inferred
Description: (§1)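 Human cancer cell lines in 384-well plates, medium with 10% serum, drug for 72 h over a 256-fold dose range (nine 2-fold or five 4-fold steps up to the top dose). Adherent lines were fixed and stained with the nucleic acid dye Syto60, suspension lines read with resazurin; signal relative to control wells, capped at 0 and 100%. One two-parameter sigmoid per drug and line, fitted in a mixed model over all curves with the slope shared within a line.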

Pazopanib = compound: Cc1ccc(Nc2nccc(N(C)c3ccc4c(C)n(C)nc4c3)n2)cc1S(N)(=O)=O [Pazopanib]; details: top dose 8 µM
Description: as §1

AR-42 = compound: CC(C)[C@H](C(=O)Nc1ccc(C(=O)NO)cc1)c1ccccc1 [AR-42]; details: top dose 5.12 µM; top dose inferred
Description: as §1

GDC0941 = compound: CS(=O)(=O)N1CCN(Cc2cc3nc(-c4cccc5[nH]ncc45)nc(N4CCOCC4)c3s2)CC1 [GDC0941]; details: top dose 4 µM; screen: GDSC drug entry 1527; top dose inferred
Description: as §1

CEP-701 = compound: C[C@]12O[C@H](C[C@]1(O)CO)n1c3ccccc3c3c4c(c5c6ccccc6n2c5c31)CNC4=O [CEP-701]; details: top dose 2 µM; top dose inferred
Description: as §1

| Cell Line | AUC (SB 216763) | IC50 (SB 216763) | AUC (Pazopanib) | IC50 (Pazopanib) | AUC (AR-42) | IC50 (AR-42) | AUC (GDC0941) | IC50 (GDC0941) | AUC (CEP-701) | IC50 (CEP-701) |
| --- | --- | --- | --- | --- | --- | --- | --- | --- | --- | --- |
| 22RV1 (prostate, adherent) | 0.98 | > 10000 nM | 0.958 | > 8000 nM | 0.408 | 168 nM | 0.749 | 1580 nM | 0.782 | 1060 nM |
| 42-MG-BA (glioma, adherent) | 0.98 | > 10000 nM | 0.559 | 731 nM | 0.683 | 1080 nM | 0.743 | 1320 nM | 0.626 | 286 nM |
| 451Lu (melanoma, adherent) | 0.987 | > 10000 nM | 0.972 | > 8000 nM | 0.634 | 739 nM | 0.987 | > 4000 nM | 0.434 | 83.2 nM |
| 639-V (bladder, adherent) | 0.962 | > 10000 nM | 0.985 | > 8000 nM | 0.837 | 2740 nM | 0.928 | > 4000 nM | 0.916 | > 2000 nM |
| 5637 (bladder, adherent) | 0.933 | > 10000 nM | 0.977 | > 8000 nM | 0.368 | 144 nM | 0.891 | 3910 nM | 0.407 | 71.4 nM |
| NCI-H2052 (mesothelioma, adherent) | 0.979 | > 10000 nM | 0.975 | > 8000 nM | 0.915 | > 5120 nM |  |  | 0.662 | 402 nM |
| NCI-H2110 (non-small cell lung carcinoma, adherent) | 0.983 | > 10000 nM | 0.985 | > 8000 nM | 0.516 | 354 nM |  |  | 0.713 | 510 nM |
| NCI-H2122 (lung adenocarcinoma, adherent) | 0.982 | > 10000 nM | 0.912 | > 8000 nM | 0.831 | 2960 nM |  |  | 0.84 | 1250 nM |
| NCI-H3122 (lung adenocarcinoma, adherent) | 0.987 | > 10000 nM | 0.834 | 5430 nM | 0.549 | 436 nM |  |  | 0.678 | 400 nM |
| OVKATE (ovary, adherent) | 0.979 | > 10000 nM | 0.954 | > 8000 nM | 0.638 | 994 nM |  |  | 0.939 | > 2000 nM |
| P12-ICHIKAWA (T-cell lymphoblastic leukaemia, suspension) | 0.981 | > 10000 nM | 0.974 | > 8000 nM | 0.314 | 111 nM |  |  | 0.651 | 294 nM |
| PA-1 (ovary, adherent) | 0.993 | > 10000 nM | 0.986 | > 8000 nM | 0.115 | 29.2 nM |  |  | 0.538 | 155 nM |
| PFSK-1 (medulloblastoma, adherent) | 0.898 | > 10000 nM | 0.971 | > 8000 nM | 0.655 | 890 nM |  |  | 0.894 | > 2000 nM |
| RH-41 (rhabdomyosarcoma, adherent) | 0.99 | > 10000 nM | 0.954 | > 8000 nM | 0.754 | 1470 nM |  |  | 0.892 | 1690 nM |
| RPMI-7951 (melanoma, adherent) | 0.918 | > 10000 nM | 0.951 | > 8000 nM | 0.576 | 512 nM |  |  | 0.554 | 174 nM |
| SK-MES-1 (lung squamous cell carcinoma, adherent) | 0.944 | > 10000 nM | 0.841 | 6280 nM | 0.551 | 447 nM |  |  | 0.386 | 59.1 nM |
| SK-OV-3 (ovary, adherent) | 0.978 | > 10000 nM | 0.815 | 5900 nM | 0.529 | 393 nM |  |  | 0.635 | 324 nM |
| SUP-B15 (lymphoblastic leukaemia, suspension) | 0.986 | > 10000 nM | 0.923 | > 8000 nM | 0.289 | 83.7 nM |  |  | 0.457 | 95.9 nM |
| SW48 (large intestine, adherent) | 0.92 | > 10000 nM | 0.859 | 6580 nM | 0.598 | 595 nM |  |  | 0.407 | 69.5 nM |
| SW1573 (lung adenocarcinoma, adherent) | 0.962 | > 10000 nM | 0.973 | > 8000 nM | 0.756 | 2310 nM |  |  | 0.774 |  |
| SW1783 (glioma, adherent) | 0.935 | > 10000 nM | 0.981 | > 8000 nM | 0.673 | 918 nM |  |  | 0.843 | 1220 nM |
| TMK-1 (stomach, adherent) | 0.952 | > 10000 nM | 0.961 | > 8000 nM | 0.703 | 1240 nM |  |  | 0.71 | 511 nM |
| U-2-OS (osteosarcoma, adherent) | 0.956 | > 10000 nM | 0.892 | > 8000 nM | 0.428 | 200 nM |  |  | 0.454 | 92.7 nM |
| VMRC-MELG (melanoma, adherent) | 0.979 | > 10000 nM | 0.96 | > 8000 nM | 0.461 | 248 nM |  |  | 0.953 | > 2000 nM |
| VMRC-RCW (kidney, adherent) | 0.981 | > 10000 nM | 0.914 | > 8000 nM | 0.68 | 975 nM |  |  | 0.938 | > 2000 nM |

From the supplement of paper PMC4967469
